Laboratory results: article PMC6919601, “Identification of Plasmodium dipeptidyl aminopeptidase allosteric inhibitors by high throughput screening” (PLoS ONE, 2019)
Where “and” joins values, the source holds several entries; their conditions need not be identical. Identical values can stand only once. Out of some 110,000 compounds screened, about 230 (0.21%) showed an effect of 50% or more. Some of the results follow.

The molecules below were run against DPAP1 (Plasmodium falciparum, UniProt Q8IIJ9) (assay: primary screen, percent inhibition; read by cleavage of a fluorogenic dipeptide substrate; higher = more effect of the substance).
Sequence of DPAP1 (Q8IIJ9 whole entry, looked up): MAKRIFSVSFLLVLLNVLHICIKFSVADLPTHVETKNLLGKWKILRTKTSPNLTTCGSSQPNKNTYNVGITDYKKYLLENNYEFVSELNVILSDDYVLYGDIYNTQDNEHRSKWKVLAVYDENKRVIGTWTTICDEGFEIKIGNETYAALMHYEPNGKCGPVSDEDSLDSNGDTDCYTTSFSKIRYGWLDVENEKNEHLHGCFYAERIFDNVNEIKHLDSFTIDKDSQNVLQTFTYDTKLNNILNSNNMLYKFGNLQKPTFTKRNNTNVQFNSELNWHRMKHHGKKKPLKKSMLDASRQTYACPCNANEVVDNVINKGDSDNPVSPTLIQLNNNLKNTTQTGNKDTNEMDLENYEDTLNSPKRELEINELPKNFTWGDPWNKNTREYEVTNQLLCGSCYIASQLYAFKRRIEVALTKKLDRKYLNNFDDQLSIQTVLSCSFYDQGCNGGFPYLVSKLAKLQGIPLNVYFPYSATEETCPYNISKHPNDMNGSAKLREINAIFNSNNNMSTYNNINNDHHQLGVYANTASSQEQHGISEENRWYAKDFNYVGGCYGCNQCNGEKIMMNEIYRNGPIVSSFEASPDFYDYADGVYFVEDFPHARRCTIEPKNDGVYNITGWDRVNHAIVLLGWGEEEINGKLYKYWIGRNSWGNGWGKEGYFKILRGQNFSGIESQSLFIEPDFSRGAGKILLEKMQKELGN
Design: species or system P. falciparum D10 trophozoite lysates; single well
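Also: 30 min substrate incubation versus DMSO and 10 µM JCP410 controls.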

| Structure (SMILES) | % Inhibition @ 10 uM |
| --- | --- |
| O=C(c1cc2ccccc2oc1=O)N(Cc1ccc(Cl)cc1)Cc1ccco1 | -4.02% |
| Cc1nn(C)c(C(=O)Nc2cc(C(F)(F)F)cc(C(F)(F)F)c2)c1Br | -4.6% |
| CCc1nn2c(=O)cc(COc3ccc(/C=C4\C(=N)N5OC(C)=CC5=NC4=O)cc3OC)nc2s1 | -5.76% |
| C[C@@H](C[C@H](NC(=O)c1ccc(-c2ccccc2Cl)nc1)C(=O)NC1(C#N)CCSCC1)c1ccccc1 | 4.54% |
| COc1ccc(OC)c(C2C(C#N)=C(N)OC3=C2C(=O)CC(C)(C)C3)c1 (stereo not drawn) | 1.08% |
| CC(C)NC(=O)c1ccc(COc2ccc(C(C)(C)C)cc2)o1 | -4.33% |
| O=C(c1cccnc1)N1N=C(C2CC2)CC1(O)C(F)(F)F (stereo not drawn) | -3.23% and 3.65% |
| COc1ccc(C(=O)N/C(=C\c2ccccc2)C(=O)Nc2ccc(C(=O)O)cc2)cc1 | 0.746% |
| CN(c1ccccc1)S(=O)(=O)c1ccc(Cl)cc1 | 0.827% |
| C[n+]1cc(C(=O)N2CCCCC2)ccc1/C=C/c1c[nH]c2ccccc12 | -9.33% |
| CC(=O)c1ccc(NC(=O)C2(c3ccccc3)CCCC2)cc1 | 2.65% |
| CN(C)c1cccc(NC(=O)c2ccc(C(C)(C)C)cc2)c1 | 0.512% |
| COc1ccc(C2CC(c3cccs3)=NN2C(=O)CN2CCCCC2)cc1 (stereo not drawn) | 9.88% |
| COc1ccc(C2=NC3(CCN(C(=O)c4ccc(C(C)(C)C)cc4)CC3)NC2=O)cc1 | -3.22% |
| CCCN1CCN(C(=O)c2cn(C)c(=O)c3cc(OC)c(OC)cc23)CC1 | -2.49% |
| COc1ccccc1N(CC(=O)NCc1ccccc1Cl)S(C)(=O)=O | 21.6% |
| COc1cc(OC)cc(C(=O)NCc2cccs2)c1 | 0.13% |
| COc1cc(C2CC(=O)Nc3[nH]nc(-c4ccccc4)c32)cc(OC)c1OC (stereo not drawn) | 1.76% |
| O=C(CCCNS(=O)(=O)c1cccs1)N1CCc2ccccc2C1 | 4.06% |
| CCC1CCc2c(sc(NC(=O)C3CCCCC3C(=O)O)c2C#N)C1 (stereo not drawn) | 4.01% |
| CCOc1ccc(C(=O)NCCc2ccccc2)cc1S(=O)(=O)N1CCCCCC1 | 2.6% |
| COc1ccc(N(CC(=O)Nc2cccc(C)c2)S(C)(=O)=O)cc1OC | -3.25% |
| NC1=C(c2nc3ccccc3s2)C(=O)CN1CCN1CCOCC1 | -5.63% |
| Cc1ccc(/C=C2N=C(/C=C/c3ccc(C)cc3)OC\2=O)cc1 | -0.597% |

| Structure (SMILES) | % Inhibition @ 10 uM |
| --- | --- |
| O=C(NC1CCN(Cc2ccccc2)CC1)c1cc2c(Cl)nc3ccccc3c2s1 | 9.02% |
| OCCOCCn1/c(=N/c2ccccc2)oc2ccccc21 | -5.13% |
| COc1cc(CN2CCN(Cc3cccnc3)CC2)cc(OC)c1OC | 2.54% |
| COc1ccc(C2C(C(=O)Nc3ccccc3C)=C(C)N=c3s/c(=C/c4cnn(C)c4)c(=O)n32)cc1 (stereo not drawn) | -3.05% |
| O=C(c1nc2ccccc2o1)C(NC(=O)[C@H](CS(=O)(=O)Cc1ccccc1OC(F)F)NC(=O)N1CCOCC1)c1cccs1 (stereo partly drawn) | -6.68% |
| COc1cccc(C2CC(=O)Nc3c2c(=O)n(C)c(=O)n3C)c1OC (stereo not drawn) | -2.24% |
| Cc1ccc(C(=O)Nc2sc3c(c2C(N)=O)CCCC3)cc1 | 0.907% |
| O=C(COc1ccc(Cl)cc1)N1CCN(c2ccccc2)CC1 | 5.92% |
| O=S(=O)(c1ccccc1)N1CCN(c2cc(Cl)ccc2Cl)CC1 | 5.03% |
| Cc1cccc(C)c1OCC(=O)N1CCOCC1 | -3.75% |
| C=CCc1c(C)c2ccc(OCC(=O)c3ccccc3)cc2oc1=O | 7.5% |
| O=C1NC(=O)N(c2ccccc2)C(=O)/C1=C\Nc1ccc(S(=O)(=O)CCO)cc1 | -0.996% |
| C/C(=C/C(=O)NCc1ccccc1)C(=O)O | -9.33% |
| COc1ccc(-c2cc3c(c(O)n2)c(=O)oc2ccccc23)cc1 | 3.61% |
| Cc1[nH]c2ccccc2c1CCC(=O)NC1CCCCC1 | 0.968% |
| CCN1CCN(CCNC(=O)Cn2ccc3cc(S(=O)(=O)N4CCCCC4)ccc32)CC1 | -4.85% |
| CNC(=O)Cn1ncc2c3ccccc3n(Cc3ccccc3F)c2c1=O | -9.07% |
| COC(=O)c1cc(=O)n(Cc2ccc(F)cc2)/c(=N/Cc2ccc(F)cc2)s1 | -11.1% |
| CC1=C(C#N)C(c2ccccc2F)C2=C(O)CCCC2=N1 (stereo not drawn) | 1.4% |
| COc1cc(/C=C2/C(=N)N3OC(C)=CC3=NC2=O)ccc1OCc1ccccc1 | 0.317% |
| NC(=O)C1CCN(C(=O)NCc2noc3ccccc23)CC1 | 3.02% |
| O=C(NC1CC1)c1ccc2c(c1)nc(S)n1c3ccccc3nc21 | 0.23% |
| COc1ccc(CNC(=O)CSc2nc(-c3ccc4c(c3)OCO4)ccc2C#N)cc1OC | 0.82% |
| O=C(CN1CCCCC1)Nc1ccc(C2CCCC2)cc1 | -0.519% |

| Structure (SMILES) | % Inhibition @ 10 uM |
| --- | --- |
| CC(c1ccccc1)N1CCc2nc(S)nc(O)c2C1 (stereo not drawn) | -8.51% |
| N#Cc1c(-c2ccc3c(c2)OCO3)csc1N | 1.21% |
| CCc1ccc2c(c1)[C@H]1OCC[C@H]1[C@@H](c1cccs1)N2 | -6.02% |
| CC(C)CCNc1nnnc2c1sc1nc(N3CCOCC3)c3c(c12)CCCC3 | 2.95% |
| O=C(Cn1cc(S(=O)(=O)Cc2ccccc2F)c2ccccc21)NCc1ccco1 | -1.07% |
| O=C(Nc1cccc2cccnc12)c1cccs1 | -0.902% |
| O=C(Cc1ccccc1)N1CCC(c2nc(-c3ccc(S(=O)(=O)N4CCCC4)cc3)no2)CC1 | 2.05% |
| COc1cc(OC)cc(C(=O)Nc2ccc(C)cc2Br)c1 | 1.28% |
| COc1ccc(OC)c(NC(=O)COc2ccc3ccccc3c2Br)c1 | -4.43% |
| COc1ccc(CCNC(=O)C2CCCN2S(=O)(=O)c2cccc3nsnc23)cc1OC (stereo not drawn) | -0.685% |
| Cc1c(/C=N/n2nnnc2N)c(O)n2c(nc3ccccc32)c1C#N | -4.93% |
| N#CC1=C(N)N(c2nc[nH]n2)C2=C(C(=O)CCC2)C1c1cccc(Br)c1 (stereo not drawn) | -5.63% |
| CCCOc1ccc(N2C(=O)CC(NCc3ccc4c(c3)OCO4)C2=O)cc1 (stereo not drawn) | -4.72% |
| COc1ccccc1NC(=O)Cn1cnc2c1c(=O)n(C)c(=O)n2C | 0.147% |
| O=c1c2c([nH]c(=S)n1-c1ccccc1)-c1ccccc1CC21CCCCC1 | 4.98% |
| CNC(=O)C1=C(C)N=C(S)NC1c1ccc(OC)c2ccccc12 (stereo not drawn) | -3.37% |
| COc1ccc(OC)c(N(CC(=O)Nc2ccccc2-c2ccccc2)S(C)(=O)=O)c1 | -4.43% |
| Cc1nc(NC(=O)c2cc3ccccc3o2)ccc1Br | 4.61% |
| CC[C@H](NC(=O)C(CC(C)CC(C)(C)C)NC(=O)OCc1ccccc1)C(=O)c1nc2ccccc2o1 (stereo partly drawn) | 0.174% |
| CCC(NC(=O)c1cc(C)nc2c1c(C)nn2-c1ccc(C)cc1)c1cccs1 (stereo not drawn) | -3.1% |
| COCCCNC(=O)C1CCN(c2ccc(N3CCOCC3)nn2)CC1 | -1.3% |
| N#CCCNc1cc2ccccc2cc1C(=O)O | 7.13% |
| CCOC(=O)N1CCN(S(=O)(=O)N2CCCC(C(=O)NCCN3CCOCC3)C2)CC1 (stereo not drawn) | 2.05% |
| O=C(c1ccccc1Cl)N1CCN(c2cccc(Cl)c2)CC1 | 3.85% |

| Structure (SMILES) | % Inhibition @ 10 uM |
| --- | --- |
| CC(=O)N(C)c1ccc(NC(=O)c2ccc(C(=O)Nc3ccc(N(C)C(C)=O)cc3)cc2)cc1 | 4.25% |
| CCOc1ccc(/C=c2/[nH]c(=O)/c(=C\c3ccc(OCC)cc3)[nH]c2=O)cc1 | -4.26% |
| CC1CCCCN1C(=O)C1c2ccccc2Oc2ccccc21 (stereo not drawn) | 8.07% |
| CCCc1noc2c1-c1onc(O)c1C(C)(C)C2 | 0.774% |
| Cc1ccsc1CN1CCN(c2cccc(C(F)(F)F)c2)CC1 | -0.0404% |
| O=C(NC1CCS(=O)(=O)C1)NC1CCS(=O)(=O)C1 (stereo not drawn) | -9.83% |
| Cn1c2c(c(=O)n(C)c1=O)C1(C(=O)Nc3ccccc31)C(C#N)=C(N)O2 (stereo not drawn) | -3.9% |
| Cc1ccc(N2C(=O)NC(=O)/C(=C/Nc3ccc(C(=O)O)cc3)C2=O)cc1 | -4.41% |
| Cc1c(Cl)ccc2c(N=Nc3ccccn3)c(O)[nH]c12 | 0.884% |
| O=S(=O)(NCC(c1ccccc1)C1CCCCC1)c1ccc2c(c1)OCCO2 (stereo not drawn) | -3.75% |
| COc1ccc(Cl)cc1S(=O)(=O)n1ccnc1C(C)C | 12.3% |
| COc1ccc(N2CCN(Cc3ccccc3[N+](=O)[O-])CC2)cc1 | -3.65% |
| COc1ccc(Sc2nc3ccccc3n3c(C)nnc23)cc1 | 0.454% |
| Cc1ccc(-c2nnn(CC(=O)N(CC(=O)NCCC(C)C)c3cnc4ccccc4c3)n2)cc1 | -4.82% |
| O=C(O)c1[nH]c2ccccc2c1CNCc1ccc(F)cc1 | 3.54% |
| Cc1ccc2nc3c(cc(C(=O)NCC4CCCO4)c(=N)n3CCc3ccccc3)c(=O)n2c1 (stereo not drawn) | 0.279% |
| O=C(c1ccc(-n2cnc3cccnc32)cc1)N1CCOCC1 | -1.48% |
| CCOCCCNC(=O)c1c(NC(=O)c2nc(SCC)ncc2Cl)sc2c1CCC2 | -1.11% |
| Cc1ccc(-c2cn(-c3ccc(Cl)cc3)c(=O)s2)cc1 | -1.96% |
| CC(C)C(NS(=O)(=O)c1cccs1)C(=O)NCCc1ccc(Cl)cc1 (stereo not drawn) | 5.7% |
| CC(C)C[C@H](NC(=O)OC1Cc2ccccc2C1)C(=O)NCC#N | -4.72% |
| NS(=O)(=O)c1cccc(NC(=O)c2cccc3c(Br)cccc23)c1 | 2.22% |
| CCOC(=O)c1c(NC(=O)/C(C#N)=C/c2ccccc2)sc2c1CCC(C)C2 (stereo not drawn) | 0.611% |
| CCOC(=O)c1c(NC(=O)CSc2n[nH]c(-c3ccco3)n2)sc2c1CCCC2 | -3.34% |
